Data as given in PubChem BioAssay AID485294 (National Center for Advancing Translational Sciences (NCATS), 2010).
Hit rate of the full screen: of about 370,000 compounds, about 150 (0.041%) were called active. The shares of active, inactive and inconclusive entries below differ from those in the screen. The call rests on the fitted dose curve; in most records, active means well fitted inhibition curve with a large enough effect; inconclusive means small, poorly fitted or top-dose-only effect; inactive means flat fitted curve, though single readings scatter. No potency is given beside an inconclusive call; the fits are too rough.

Target: Beta-lactamase (Escherichia coli (strain K12)) (UniProt P00811)
Assay: qHTS Inhibitors of AmpC Beta-Lactamase (assay with detergent); further: nearly all actives have a fitted effect of over 25% in size
Details: AmpC hydrolysis of nitrocefin, absorbance 480 nm, 0.01% Triton; series mostly up to 114 µM
How it was run: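 AmpC (5.3 nM in the dispensed reagent) in 20 mM phosphate pH 7.0 with 0.01% (detergent screen) or 0.0001% Triton X-100 was preincubated with compounds for 15 min at room temperature. Nitrocefin was then added from an 800 uM solution, and hydrolysis was followed at 480 nm.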
Potency means the concentration at half of the fitted maximal effect; tags describe the fitted curve by direction and shape.

Sequence of UniProt P00811 (P00811 whole entry, looked up): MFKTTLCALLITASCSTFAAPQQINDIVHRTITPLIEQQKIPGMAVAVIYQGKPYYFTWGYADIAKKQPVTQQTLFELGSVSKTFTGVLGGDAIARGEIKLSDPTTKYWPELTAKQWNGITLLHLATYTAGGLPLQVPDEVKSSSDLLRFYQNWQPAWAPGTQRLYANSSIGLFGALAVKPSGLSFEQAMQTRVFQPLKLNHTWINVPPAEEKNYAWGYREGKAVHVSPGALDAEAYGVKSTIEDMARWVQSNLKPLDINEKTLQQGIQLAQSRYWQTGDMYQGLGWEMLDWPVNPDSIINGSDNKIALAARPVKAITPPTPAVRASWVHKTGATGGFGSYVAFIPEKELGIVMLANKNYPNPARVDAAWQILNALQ

| Compound | Potency |
| --- | --- |
| CC(=O)Nc1nc2ccccc2n1Cc1ccccc1 | inactive |
| CCOC(=O)Cc1csc(NC(=S)NC(=O)c2cccc([N+](=O)[O-])c2)n1 | inactive |
| CCOC(=O)c1ccc(NC(=O)CN(C)S(=O)(=O)c2ccc(OC)cc2)cc1 | inconclusive [inhibitor, full curve, poor fit] |
| CCCCCCCn1ccc(=N)cc1 | inactive |
| COc1ccccc1CNC(=O)C(=O)NCC(c1cccnc1)N1CCN(c2ccccc2)CC1 (stereo not drawn) | inactive |
| Cc1cc(S(=O)(=O)NC2CCCCC2)ccc1OCC(=O)N1CCOCC1 | inactive |
| COc1cccc(C(=O)NCCS(=O)(=O)N2CCc3ccccc3C2)c1 | inconclusive [inhibitor, full curve, poor fit] |
| Cc1ccc(-n2[nH]c(C)c(C=Nc3ccc(Br)cn3)c2=O)cc1 | inactive |
| CCOc1ccc2nnnn2n1 | inconclusive [inhibitor, single point] |
| CN1CCN(c2ccc(NC(=S)NC(=O)c3cccc4c(Br)cccc34)cc2)CC1 | inconclusive [inhibitor, partial curve, poor fit] |
| CCCC(=O)Nc1ccc(NC(=O)c2cccc(OC)c2)cn1 | inconclusive [inhibitor, full curve, poor fit] |
| CSCC(=O)N1CCc2ccc(NC(=O)c3ccccc3Cl)cc2C1 | inactive |
| CN(CC(=O)Nc1ccc(Cl)c(C(F)(F)F)c1)C(=O)c1ccc2c(c1)OCCO2 | inconclusive [inhibitor, partial curve, poor fit] |
| CCc1ccc(/C=C2/SC(=S)N(CC(=O)Nc3nc4ccccc4s3)C2=O)cc1 | inactive |
| CCOc1ccc(S(=O)(=O)Nc2cccnc2)cc1 | inconclusive [inhibitor, partial curve, poor fit] |
| CC1CCC2C(=O)N(c3cccc(C(=O)Nc4ccc(F)cc4)c3)C(=O)C2C1 (stereo not drawn) | inconclusive [inhibitor, full curve] |
| N=c1sc2c(n1Cc1ccccc1)CCCC2 | inconclusive [inhibitor, partial curve, poor fit] |
| CCCCCCC#Cc1ccc2c(c1)COc1c3ccccc3nn1-2 | inactive |
| CC(C)OC(=O)c1ccc(COC(=O)CNC(=O)c2ccco2)cc1 | inconclusive [inhibitor, single point] |
| CN1CCN(NC(=O)c2cccc(C(F)(F)F)c2)CC1 | inactive |
| Cc1cccc(NC(=O)C2CC(=O)OC23CCCCC3)c1 (stereo not drawn) | inactive |
| COc1ccc(Cn2c(=O)n(-c3ccc(C)cc3)c(=O)c3c2c2cc(C)ccc2n3C)cc1 | inconclusive [inhibitor, single point] |
| CCC(=O)Nc1ccc(C(=O)OCC(=O)c2cccs2)cc1 | inactive |
| COc1ccc(CSc2nc3ccccc3c(=O)[nH]2)cc1F | inconclusive [inhibitor, single point] |
| COc1ccc(NC(=O)c2cnc3cc(C)ccn3c2=O)c(OC)c1 | inactive |

| Compound | Potency |
| --- | --- |
| Cc1ccc(NC(=O)c2c([N+](=O)[O-])cnn2C)cc1C | inconclusive [inhibitor, full curve, poor fit] |
| COc1ccc(Cl)cc1NC(=S)NCCCN1CCCC1=O | inconclusive [inhibitor, full curve, poor fit] |
| CN(CC(=O)Nc1ccc(Cl)c(C(F)(F)F)c1)C(=O)c1ccc(N2CCOCC2)c([N+](=O)[O-])c1 | inactive |
| Clc1ccc(-c2c[n+](Cc3ccc(Cl)cc3Cl)c3n2CCCCC3)cc1 | inactive |
| CN(C)CCCN(C(=O)c1ccc2ccccc2c1)c1nc2cc3c(cc2s1)OCO3 | inactive |
| COc1ccc(CCn2c(-c3ccco3)nc3ccccc3c2=O)cc1OC | inconclusive [inhibitor, partial curve] |
| CC1(c2ccc(OC(F)F)cc2)NC(=O)N(CC(=O)Nc2ccc3[nH]c(=O)[nH]c3c2)C1=O (stereo not drawn) | inconclusive [inhibitor, single point] |
| O=C1CCCN1CC1CCN(Cc2nc(CC3CC3)no2)CC1 | inactive |
| COc1cc(OC)c(OC)cc1CNC(=O)c1cccc(S(=O)(=O)N2CCc3ccccc3C2)c1 | inconclusive [inhibitor, full curve] |
| CCc1ccccc1Nc1nc(N)nc(COC(=O)CCC(=O)c2ccc(F)cc2)n1 | inactive |
| COc1ccc(Cc2nc(-c3ccc(Br)cc3)no2)cc1 | inactive |
| COc1cccc(NC(=O)c2cc3ccccc3o/c2=N\O)c1 | inactive |
| COc1ccc(N(C)C(=O)c2cc3c(s2)-c2ccccc2S(=O)(=O)C3)cc1 | inactive |
| Cc1noc(-c2ccc(-c3noc(-c4ccc(Cl)cc4)n3)cc2)n1 | inactive |
| CC(=O)Nc1ccc(OCC(=O)NCc2ccc3c(c2)OCO3)cc1 | inconclusive [inhibitor, full curve, poor fit] |
| Cc1ccc(S(=O)(=O)N(CC(=O)N2CCc3ccccc3C2)c2ccc(Cl)c(Cl)c2)cc1 | inconclusive [inhibitor, partial curve, poor fit] |
| CC1=C/C(=C/N(C)C)C(=O)O1 | inconclusive [inhibitor, full curve, poor fit] |
| O=C(O)c1nccnc1C(=O)N1CCN(c2ccccc2)CC1 | inconclusive [inhibitor, single point] |
| CCc1cc(=O)oc2cc(C)cc(OCC(=O)NCCc3c[nH]c4ccccc34)c12 | inconclusive [inhibitor, partial curve] |
| Clc1ccc2[nH]c3c(N4CCC5(CC4)OCCO5)ncnc3c2c1 | inconclusive [inhibitor, single point] |
| COc1ccc(CCNC(=O)CN2C(=O)c3ccccc3S2(=O)=O)cc1 | inconclusive [inhibitor, partial curve] |
| Cc1cccc(OCC(=O)N2CCC3(CC2)CC(=O)c2ccccc2O3)c1 | inconclusive [inhibitor, single point] |
| CSc1ccc(/C=N/NC(=O)CNc2ccc3ccccc3c2)cc1 | inconclusive [inhibitor, full curve] |
| O=C(/C=C/c1ccco1)NCc1ccco1 | inactive |
| O=C(NCC(=O)N(c1ccccc1F)C(C(=O)NCC1CCCO1)c1ccccc1)c1ccco1 (stereo not drawn) | inconclusive [inhibitor, full curve, poor fit] |

| Compound | Potency |
| --- | --- |
| COc1cccc(NC(=O)CSc2nnc(-c3ccc(C)cc3)o2)c1 | inconclusive [inhibitor, partial curve, poor fit] |
| N#Cc1nc(-c2ccco2)oc1N1CCCC1 | inconclusive [inhibitor, full curve, poor fit] |
| COc1ccccc1NC(=O)COc1ccc(/C=N/NC(=O)CSCc2ccc(Cl)cc2)cc1 | inconclusive [inhibitor, partial curve, poor fit] |
| O=C(Nc1nnc(CCN2CCOCC2)s1)c1ccccc1 | inconclusive [inhibitor, full curve, poor fit] |
| COc1ccccc1OCCCCCNCCO | inconclusive [inhibitor, partial curve, poor fit] |
| COc1ccc(C2/C(=C(/O)c3ccc(F)cc3)C(=O)C(=O)N2CCCN2CCOCC2)cc1OC (stereo not drawn) | inconclusive [inhibitor, full curve] |
| CC(=O)c1c(C)[nH]c(C(=O)N2c3ccccc3CC2C)c1C (stereo not drawn) | inconclusive [inhibitor, partial curve, poor fit] |
| CCC1=NN(C(=O)CCc2ccccc2)C(O)(C(F)(F)F)C1 (stereo not drawn) | inconclusive [inhibitor, full curve] |
| COc1ccc(-c2cnc(SCC(=O)Nc3nc(C(C)(C)C)cs3)n2Cc2ccco2)cc1 | inactive |
| O=C1Nc2ccccc2N=C(c2ccccc2)C1Br (stereo not drawn) | inactive |
| CCc1ccccc1NC(=S)N(CCN1CCCCCC1)Cc1ccco1 | inconclusive [inhibitor, single point] |
| N/C(=N\OC(=O)c1ccc(Cl)cc1Cl)c1ccc(Cl)cc1 | inactive |
| COc1ccccc1OCCCn1c(=O)oc2ccc(C)cc21 | inconclusive [inhibitor, full curve, poor fit] |
| Cc1nc(NC(=O)c2ccc(Cl)cc2)nc2cc3c(cc12)OCO3 | inactive |
| O=S(=O)(Nc1ncccn1)c1ccc(NC(=S)NCc2cccnc2)cc1 | inconclusive [inhibitor, single point] |
| CCOc1ccccc1N(C(=O)Nc1ccc(Cl)cc1)C1=NC(C)CS1 (stereo not drawn) | inactive |
| COc1ccc(C(=O)NCc2ccc(C(=O)NCC(OC)OC)cc2)cc1OC | inconclusive [inhibitor, partial curve, poor fit] |
| Cc1cc(S(=O)(=O)N2CCN(c3ccccn3)CC2)ccc1F | inconclusive [inhibitor, single point] |
| CC(=O)Nc1ccc(N/C=C/C(=O)c2ccccc2)cc1 | inconclusive [inhibitor, full curve, poor fit] |
| CCCNC(=O)Cn1c(=O)oc2ccccc21 | inconclusive [inhibitor, single point] |
| C=CCNC(=O)CN1CCN(Cc2ccc3c(c2)OCO3)CC1 | inconclusive [inhibitor, full curve, poor fit] |
| CCN(CC)S(=O)(=O)c1ccc(N2CCCC2)c(NC(=O)C2CCCCC2)c1 | inactive |
| COc1cc2nc(C3CCC3)n(NC(=O)C3CCC3)c(=O)c2cc1OC | inconclusive [inhibitor, partial curve, poor fit] |
